Laboratory results taken from the supplement of paper PMC8813932.
Structures can show the parent of a compound that is named as a salt. ± gives the standard deviation of the averaged measurements. Some of the results follow. Most values come without repeats; read them as rough.

How the values were obtained:
Assay in all cases: log2 surviving fraction relative to plate median (drug vs vehicle, or drug+dl922-947 vs dl922-947 alone); ovarian cancer lines: OVCAR4 is platinum-sensitive while Ov4Cis resists cisplatin and Ov4Carbo carboplatin; higher = more cell survival
Settings in all cases: compound concentration: 10 uM, 192 h
OVCAR4 = test system: OVCAR4
Ov4Carbo = test system: Ov4Carbo
Ov4Cis = test system: Ov4Cis
[1] = dl922-947 oncolytic adenovirus co-treatment: MOI 10
[2] = dl922-947 oncolytic adenovirus co-treatment: none

Row | Compound | log2 surviving fraction (OVCAR4; [1]) | log2 surviving fraction (OVCAR4; [2]) | log2 surviving fraction (Ov4Carbo; [1]) | log2 surviving fraction (Ov4Carbo; [2]) | log2 surviving fraction (Ov4Cis; [1]) | log2 surviving fraction (Ov4Cis; [2])
1 | COc1cc2c(cc1O)CC[C@@H]1[C@@H]2CC[C@]2(C)[C@@H](O)CC[C@@H]12 [2-Methoxyestradiol] | -6.908 ± 0.033 | -6.34 ± 6.2 | -5.05 | -8.77 | -5.59 | -9.52
2 | CO[C@H]1C[C@@H]2CC[C@@H](C)[C@@](O)(O2)C(=O)C(=O)N2CCCC[C@H]2C(=O)O[C@H]([C@H](C)C[C@@H]2CC[C@@H](OCCO)[C@H](OC)C2)CC(=O)[C@H](C)/C=C(\C)[C@@H](O)[C@@H](OC)C(=O)[C@H](C)C[C@H](C)/C=C/C=C/C=C/1C [Everolimus (RAD001)] | -2.1 ± 0.66 | -4.32 ± 3 | -4.02 | -5.68 | -2.11 | -6.05
3 | CN(c1nccc(=O)[nH]1)C1CCN(c2nc3ccccc3n2Cc2ccc(F)cc2)CC1 [Mizolastine (Mizollen)] | 0.491 ± 0.89 | 0.263 ± 0.78 | -0.0538 | -0.654 | -0.434 | -0.362
4 | CC(C)CC(N)=O [Isovaleramide] | 0.828 ± 0.028 | 0.179 ± 1.3 | 0.675 | -1.99 | 1.04 | 0.823
5 | CC(Oc1c(Cl)cccc1Cl)C1=NCCN1 (configuration not stated) [Lofexidine  HCl] | -0.0326 ± 0.62 | 0.929 ± 1.5 | 0.0104 | -0.0538 | -0.0339 | 0.592
6 | COc1ccccc1OCCNCC(O)COc1cccc2[nH]c3ccccc3c12 (configuration not stated) [Carvedilol] | -1.82 ± 0.24 | -1.22 ± 0.83 | -2.86 | -0.891 | -4.54 | -1.86
7 | Cc1cn([C@H]2C=C[C@@H](CO)O2)c(=O)[nH]c1=O [Stavudine] | 0.17 ± 1.3 | -0.124 ± 0.43 | 0.496 | 1.2 | -0.595 | -1.03
8 | Cc1cccc(CN2CCN(C(c3ccccc3)c3ccc(Cl)cc3)CC2)c1 (configuration not stated) [Meclizine 2HCl] | -0.658 ± 0.33 | -0.233 ± 0.27 | -1.01 | -1.47 | 0.358 | -0.265
9 | C[N+](C)(C)C[C@H](O)CC(=O)[O-] [L-carnitine (Levocarnitine)] | -0.416 ± 0.63 | -0.00221 ± 1.2 | 0.637 | 0.0298 | 0.843 | 0.611
10 | N=C(N)c1ccc(N=NNc2ccc(C(=N)N)cc2)cc1 [Diminazene Aceturate] | -0.639 ± 0.72 | -0.907 ± 1.2 | -1.14 | -2.45 | -0.223 | -0.379
11 | CC1=NN(c2ccc(C)c(C)c2)C(=O)/C1=N\Nc1cccc(-c2cccc(C(=O)O)c2)c1O | -2.27 ± 0.54 | -4.79 ± 1.7 | -4.16 | -4.63 | -2.06 | -3.32
12 | O=c1[nH]c(=O)n([C@H]2C[C@H](O)[C@@H](CO)O2)cc1I [Idoxuridine] | 1.13 ± 0.4 | -1.96 ± 0.31 | 2.15 | -4.84 | 0.119 | -1.54
13 | O=C(O)c1cc(-c2ccccc2)nc2ccccc12 [Cinchophen] | -0.00526 ± 0.046 | -0.208 ± 0.57 | 0.289 | 0.297 | -0.238 | -0.255
14 | O=C1NCC2(CCN(CCc3ccccc3)CC2)O1 [Fenspiride HCl] | 0.334 ± 0.64 | 0.346 ± 1.1 | 0.203 | -0.817 | 0.916 | 0.0431
15 | Cc1cc(C(C#N)c2ccc(Cl)cc2)c(Cl)cc1NC(=O)c1cc(I)cc(I)c1O (configuration not stated) [Closantel Sodium] | 0.0328 ± 0.063 | 0.349 ± 0.0062 | 1.63 | -2.36 | 0.996 | -2.79
16 | CN(C)CCCN1c2ccccc2CCc2ccccc21 [Imipramine HCl] | -1.26 ± 1.6 | 0.266 ± 0.67 | -3.09 | -2.43 | -1.43 | -0.632

Row | Compound | log2 surviving fraction (OVCAR4; [1]) | log2 surviving fraction (OVCAR4; [2]) | log2 surviving fraction (Ov4Carbo; [1]) | log2 surviving fraction (Ov4Carbo; [2]) | log2 surviving fraction (Ov4Cis; [1]) | log2 surviving fraction (Ov4Cis; [2])
17 | COc1ccc2cc1Oc1ccc(cc1)C[C@H]1c3c(cc4c(c3Oc3cc5c(cc3OC)CCN(C)[C@@H]5C2)OCO4)CCN1C [Cepharanthine] | -4.63 ± 5 | -0.714 ± 0.75 | -7.39 | -9.89 | -4.75 | -2.67
18 | CCN(CC)CCOc1ccc(C(=C(Cl)c2ccccc2)c2ccccc2)cc1 [Clomifene citrate (Serophene)] | -5.63 ± 0.92 | -4.24 ± 2.2 | -3.09 | -5.93 | -7.75 | -11.7
19 | CC(=O)O[C@]1(C(C)=O)CC[C@H]2[C@@H]3C=C(C)C4=CC(=O)CC[C@]4(C)[C@H]3CC[C@@]21C [Megestrol Acetate] | 0.543 ± 0.77 | 0.0705 ± 0.25 | 0.586 | -0.0647 | 1.37 | 0.119
20 | C[C@@H](Oc1cc(-c2cnn(C3CCNCC3)c2)cnc1N)c1c(Cl)ccc(F)c1Cl | -7.43 ± 0.42 | -7.78 ± 5.1 | -8.16 | -11.3 | -8.67 | -14.8
21 | Nc1ccn([C@@H]2O[C@H](CO)[C@@H](O)[C@@H]2O)c(=O)n1 [Cytarabine] | -4.4 ± 2 | -4.73 ± 1.3 | -3.57 | -4.64 | -5.32 | -7.53
22 | C#C[C@]1(O)CC[C@H]2[C@@H]3CCC4=CC(=O)CC[C@@H]4[C@H]3CC[C@@]21CC [Levonorgestrel (Levonelle)] | 0.0575 ± 0.52 | -0.0993 ± 0.26 | 0.189 | 0.497 | 0.244 | 0.0581
23 | Clc1cccc(Cl)c1NC1=NCCN1 [Clonidine hydrochloride (Catapres)] | 1.33 ± 0.8 | 0.348 ± 0.23 | 0.858 | 1.55 | 0.925 | 0.711
24 | C=C(c1ccc(C(=O)O)cc1)c1cc2c(cc1C)C(C)(C)CCC2(C)C [Bexarotene] | 0.241 ± 0.48 | -0.418 ± 0.11 | 1.31 | -1.7 | 0.154 | -0.189
25 | Nc1ccn([C@@H]2CS[C@H](CO)O2)c(=O)n1 [Lamivudine (Epivir)] | -0.182 ± 0.16 | 0.528 ± 0.38 | 0.85 | 0.355 | 0.317 | -0.175
26 | CCc1oc2ccccc2c1C(=O)c1cc(Br)c(O)c(Br)c1 [Benzbromarone] | 0.762 ± 1.1 | 0.673 ± 0.097 | -0.148 | 0.231 | 0.311 | 0.0674
27 | CC(NC(C)(C)C)C(=O)c1cccc(Cl)c1 (configuration not stated) [Amfebutamone (Bupropion)] | 0.849 ± 0.21 | 1.03 ± 0.49 | 0.607 | 1.26 | 1.24 | 0.347
28 | C=CCOc1ccccc1OCC(O)CNC(C)C (configuration not stated) [Oxprenolol HCl] | 0.0272 ± 0.1 | -1.46 ± 2.2 | 0.866 | -0.71 | 0.547 | -0.353
29 | NCCCC[C@H](N[C@@H](CCc1ccccc1)C(=O)O)C(=O)N1CCC[C@H]1C(=O)O [Lisinopril (Zestril)] | 0.911 ± 1.1 | 0.826 ± 0.19 | -0.483 | 0.769 | -0.387 | 1.07
30 | NS(=O)(=O)c1cc2c(cc1Cl)N=CNS2(=O)=O [Chlorothiazide] | 1.03 ± 0.33 | 0.801 ± 1.2 | 1.28 | -0.299 | 0.354 | 1.26
31 | COc1cc2c(cc1OC)[C@@]13CCN4CC5=CCO[C@H]6CC(=O)N2[C@H]1[C@H]6[C@H]5C[C@H]43 [Brucine] | -0.00544 ± 1.1 | 0.581 ± 1.9 | 1.17 | 0.741 | -0.0962 | 0.263
32 | COc1nc(C)nc(Cl)c1NC1=NCCN1 [Moxonidine] | 0.588 ± 0.38 | 0.271 ± 0.63 | -1.59 | -0.457 | -0.425 | -0.15
